# Sequences with one replicate were seen in a single cluster, so their values are uncertain.
# Test system: ATP
# Assay: switch fluorescence ratio, 500 uM ATP over buffer (Cy3 cluster intensity, sum of 5 cycles each) (fold (ratio)); higher = stronger signal-on switching upon ATP binding; sequences stand for … in TCGTCGGCAGCGTCAGATGTGTATAAGAGACAGTTTTTTTTTTTTTTTTTTTTTTTTT…TC
# Conditions: aptamer strand: ATP DNA aptamer (quencher-CACCTGGGGGAGTATTGCGGAGGAAGG + anchor), 100 nM annealed; ATP concentration: 500 uM; one replicate
# Outline: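 For every switch-domain sequence, the fluorescence ratio is the mean of per-cluster values, each being summed target-cycle Cy3 intensity over summed buffer-cycle Cy3 intensity. Clusters outside 100-1000 RFU were excluded. On a modified Illumina MiSeq flow-cell, the Cy3-labelled switching-strand clusters were annealed to 100 nM quencher-labelled ATP aptamer, imaged in selection buffer and then after 15 min with 500 uM ATP at 22 °C. Five such cycles were run, with NaOH stripping and re-annealing between them.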
# 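Also: ATP exposure 15 min at 22 °C before imaging.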
row,Sequence,switch fluorescence ratio
1,GCGCGTAGAA,0.994
2,CATCGTGCAT,1.32
3,ACCTTGCGTT,0.993
4,ATGATCTGTA,0.998
5,TTGAGAAAAA,0.988
6,AGGTATAAG,1
7,TGCCGTAGGT,1.02
8,AACATCAACT,1.06
9,ACCCGCTGTA,1.22
10,AGCGACTAGG,1.02
11,ACTCGGTGCG,1.05
12,ACCACTATTA,1.02
13,CTCCTTTGTT,1.65
14,TCACTTAAGT,1.13
15,ATTCGGTACT,1.02
16,TATGGACATC,1.01
17,CGATAGCACT,1.3
18,GGGTCTAGCA,0.998
19,AATTCATCTA,1.02
20,CGAAGGGTAG,0.994
21,GGTACTCAAG,1.05
22,GCAAGCATGC,1.14
23,TATAAAGGAG,1.06
24,TCGTGTTTTG,0.995
25,AAGTAGTAC,1.1
26,GCCAATTGGG,0.978

row,Sequence,switch fluorescence ratio
1,AATGTTGTAC,1.04
2,ACGATGTGAC,1.11
3,GTTGACGAGG,0.996
4,GCTTATTGAT,0.957
5,GAGGAATGGG,1.01
6,GGATGGCATA,0.949
7,ACATACCGGT,1.26
8,CTAGATCGTT,1.01
9,AGCCTAGACA,0.998
10,CCGCTGAGGC,1.84
11,CGTATGGA,0.972
12,CAGGGACTCC,0.969
13,ATAATCCCCG,1.03
14,AGGTTCGGC,1.07
15,GCACTTAGT,1.07
16,GATCTATGCT,0.992
17,CCTTAGGCAG,1.24
18,TGGATAGGTC,0.979
19,GAAACTCGGT,0.992
20,AAGAGCAGCT,0.986
21,CGAAAGGTAT,1.02
22,ATTTCTAAGT,0.972
23,GTCTGGAAAA,0.949
24,TCGGTAACCG,0.988
25,CTATGGAGGG,0.992
26,CATTGTTATG,1.02

row,Sequence,switch fluorescence ratio
1,AGAGGGCCGA,1
2,CCGTTTGGGG,0.962
3,TAAATGGTAC,1.03
4,GATGCGTACT,1.07
5,GCTATGACTC,1.12
6,AGTTCTCGGA,0.965
7,TCCCACGATT,1.03
8,CTTAAGCGGG,0.903
9,TCCCCATACA,1.07
10,ACGACTGCAC,3.87
11,CATAGTTCAT,1.23
12,TAGCATGTTG,1.02
13,TTACGTTA,1.22
14,GAGATGTAA,1.02
15,CATACTAGGT,1.02
16,TACTTAAGGG,1.01
17,TTCGAAGCG,1.01
18,AGACGCCATA,1.08
19,TGACATGC,1.12
20,ACGGGAAGGT,1.03
21,GAGGCCCGAG,1.03
22,TCTGATTGAT,1
23,TCGATTCCTA,1.01
24,GCAGAAGGGG,1
25,GCAGAATACT,1.3
26,ACAGTTTACC,1.15

row,Sequence,switch fluorescence ratio
1,TACGGCTCGG,0.987
2,CCCGGTAGAA,1.01
3,AGCTTTGGAC,1.01
4,AGTGACTGCG,1.01
5,CCGTGTCTTT,0.992
6,CTTCGACCGT,0.999
7,GGCTATCGTG,1.01
8,GTCGAGGCAG,1.03
9,AAGCTCTTAC,1.19
10,AACCATTCGT,1.01
11,GCCTGCGTGA,1.24
12,AATAAGTC,0.989
13,TATCAGATTT,1.01
14,AGGATTTAA,1.03
15,GTAACGTCTC,1.03
16,GGGATGTAAT,0.968
17,TTAGGAGCAG,0.973
18,GAACACATAA,1.07
19,TCTTGGCAAA,1.16
20,CCCCTCTTGA,1.03
21,GGAGAAGGAG,1.05
22,GGCTATAAGA,1
23,GCTGTCTAGC,1.02
24,CTACTCTTCC,2.43
25,ATATGAGTGT,0.943
26,CGCTCACCCG,1.23

row,Sequence,switch fluorescence ratio
1,TAAGGTCATT,1
2,TGCAGTAGAG,0.982
3,TGCTTGGGTG,1.01
4,TCAGGGGTA,1.04
5,GTGTTGACTA,1.11
6,GCCTATTTAA,0.994
7,CGGATCGTAC,1.29
8,AATTTCACTC,1.06
9,CCAAGTGACC,1.11
10,TTACTGCCAC,1.26
11,CACCGACGGA,1.1
12,GGTAAGAGGA,0.972
13,ACTAATACAC,1.14
14,TCACGAGCGG,1.01
15,ATGCGATCGT,1.05
16,TCATTGCGA,1.32
17,ACACGGAGAT,1
18,CGTTACGGTT,1.01
19,TCAATGTATT,1.01
20,GCACCAGCAT,1.03
21,AACGAGG,0.954
22,CGGCACGGGA,0.98
23,AGCTGCCCTG,1.01
24,CATATTTGGT,0.976
25,GGCACTGTTT,1.03
26,GGCCGCGCAC,1.44

row,Sequence,switch fluorescence ratio
1,TGGTGTCTCC,0.988
2,ATTTTGACCT,1.3
3,TGGTCCAGC,1.01
4,AGGTGTCGCA,1
5,GTGCGTCTAT,1.01
6,CAAATCAACT,1.03
7,TCTTAGATAA,0.962
8,TCGACATGCT,1.06
9,GCAACTAGG,0.965
10,ATTTCATGGG,1.01
11,TATCCGGGCA,1.08
12,TTCTTTCAAC,1.03
13,ACAGATATGC,0.993
14,ATGCCACGAC,1.04
15,AAGGGAATCT,1.06
16,TACCCAGAC,1.24
17,GCTGGGGT,1.08
18,ATTAACGGTA,1.12
19,TAGGCTGGTG,1.01
20,ACAATTTGG,1.01
21,ACTTAGCTCT,1.01
22,ATCAAGATCG,0.977
23,GCTGTGTACA,0.987
24,GGGCAGTCGG,0.967

# Reference: the supplement of paper PMC10126150
